This is one part of the list.
Columns and labels:
Assay in all cases: glycan array binding signal (z-score within array); higher = stronger binding
Settings in all cases: glycan notation: IUPAC condensed, linker removed
[1] = target: GlcNAc(b1-3)Gal(b1-4)Glc
Outline: (§1)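 The Consortium for Functional Glycomics database supplied 3228 glycan arrays, of which those lacking an available protein sequence were dropped. The binding signal, a within-array Z-score, was averaged across arrays of the same protein sequence and across linkers. Negative scores can be read as non-binding.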

[2] = target: GlcNAc(b1-3)Gal(b1-4)GlcNAc
Outline: as §1

[3] = target: GlcNAc(b1-3)Gal(b1-4)GlcNAc(b1-2)Man(a1-3)[GlcNAc(b1-3)Gal(b1-4)GlcNAc(b1-2)Man(a1-6)]Man(b1-4)GlcNAc(b1-4)GlcNAc
Outline: as §1

[4] = target: GlcNAc(b1-3)Gal(b1-4)GlcNAc(b1-2)Man(a1-3)[GlcNAc(b1-3)Gal(b1-4)GlcNAc(b1-2)Man(a1-6)]Man(b1-4)GlcNAc(b1-4)[Fuc(a1-6)]GlcNAc
Outline: as §1

[5] = target: GlcNAc(b1-3)Gal(b1-4)GlcNAc(b1-2)[GlcNAc(b1-3)Gal(b1-4)GlcNAc(b1-6)]Man(a1-6)[GlcNAc(b1-3)Gal(b1-4)GlcNAc(b1-2)Man(a1-3)]Man(b1-4)GlcNAc(b1-4)GlcNAc
Outline: as §1

[6] = target: GlcNAc(b1-3)Gal(b1-4)GlcNAc(b1-3)Gal(b1-4)GlcNAc
Outline: as §1

[7] = target: GlcNAc(b1-3)Gal(b1-4)GlcNAc(b1-3)Gal(b1-4)GlcNAc(b1-2)Man(a1-3)[GlcNAc(b1-3)Gal(b1-4)GlcNAc(b1-3)Gal(b1-4)GlcNAc(b1-2)Man(a1-6)]Man(b1-4)GlcNAc(b1-4)GlcNAc
Outline: as §1

[8] = target: GlcNAc(b1-3)Gal(b1-4)GlcNAc(b1-3)Gal(b1-4)GlcNAc(b1-2)Man(a1-3)[GlcNAc(b1-3)Gal(b1-4)GlcNAc(b1-3)Gal(b1-4)GlcNAc(b1-2)Man(a1-6)]Man(b1-4)GlcNAc(b1-4)[Fuc(a1-6)]GlcNAc
Outline: as §1

[9] = target: GlcNAc(b1-3)Gal(b1-4)GlcNAc(b1-3)Gal(b1-4)GlcNAc(b1-2)[GlcNAc(b1-3)Gal(b1-4)GlcNAc(b1-3)Gal(b1-4)GlcNAc(b1-6)]Man(a1-6)[GlcNAc(b1-3)Gal(b1-4)GlcNAc(b1-3)Gal(b1-4)GlcNAc(b1-2)Man(a1-3)]Man(b1-4)GlcNAc(b1-4)[Fuc(a1-6)]GlcNAc
Outline: as §1

[10] = target: GlcNAc(b1-3)Gal(b1-4)GlcNAc(b1-3)Gal(b1-4)GlcNAc(b1-3)Gal(b1-4)GlcNAc(b1-2)Man(a1-3)[GlcNAc(b1-3)Gal(b1-4)GlcNAc(b1-3)Gal(b1-4)GlcNAc(b1-3)Gal(b1-4)GlcNAc(b1-2)Man(a1-6)]Man(b1-4)GlcNAc(b1-4)GlcNAc
Outline: as §1

[11] = target: GlcNAc(b1-3)Gal(b1-4)GlcNAc(b1-3)Gal(b1-4)GlcNAc(b1-3)Gal(b1-4)GlcNAc(b1-2)Man(a1-3)[GlcNAc(b1-3)Gal(b1-4)GlcNAc(b1-3)Gal(b1-4)GlcNAc(b1-3)Gal(b1-4)GlcNAc(b1-2)Man(a1-6)]Man(b1-4)GlcNAc(b1-4)[Fuc(a1-6)]GlcNAc
Outline: as §1

[12] = target: GlcNAc(b1-3)Gal(b1-4)GlcNAc(b1-3)Gal(b1-4)GlcNAc(b1-3)Gal(b1-4)GlcNAc(b1-2)[GlcNAc(b1-3)Gal(b1-4)GlcNAc(b1-3)Gal(b1-4)GlcNAc(b1-3)Gal(b1-4)GlcNAc(b1-6)]Man(a1-6)[GlcNAc(b1-3)Gal(b1-4)GlcNAc(b1-3)Gal(b1-4)GlcNAc(b1-3)Gal(b1-4)GlcNAc(b1-2)Man(a1-3)]Man(b1-4)GlcNAc(b1-4)[Fuc(a1-6)]GlcNAc
Outline: as §1

[13] = target: GlcNAc(b1-3)Gal(b1-4)GlcNAc(b1-3)Gal(b1-4)GlcNAc(b1-3)Gal(b1-4)GlcNAc(b1-3)Gal(b1-4)GlcNAc(b1-2)Man(a1-3)[GlcNAc(b1-3)Gal(b1-4)GlcNAc(b1-3)Gal(b1-4)GlcNAc(b1-3)Gal(b1-4)GlcNAc(b1-3)Gal(b1-4)GlcNAc(b1-2)Man(a1-6)]Man(b1-4)GlcNAc(b1-4)GlcNAc
Outline: as §1

[14] = target: GlcNAc(b1-3)Gal(b1-4)GlcNAc(b1-3)Gal(b1-4)GlcNAc(b1-3)Gal(b1-4)GlcNAc(b1-3)Gal(b1-4)GlcNAc(b1-2)Man(a1-3)[GlcNAc(b1-3)Gal(b1-4)GlcNAc(b1-3)Gal(b1-4)GlcNAc(b1-3)Gal(b1-4)GlcNAc(b1-3)Gal(b1-4)GlcNAc(b1-2)Man(a1-6)]Man(b1-4)GlcNAc(b1-4)[Fuc(a1-6)]GlcNAc
Outline: as §1

[15] = target: GlcNAc(b1-3)Gal(b1-4)GlcNAc(b1-3)Gal(b1-4)GlcNAc(b1-3)Gal(b1-4)GlcNAc(b1-3)Gal(b1-4)GlcNAc(b1-2)[GlcNAc(b1-3)Gal(b1-4)GlcNAc(b1-3)Gal(b1-4)GlcNAc(b1-3)Gal(b1-4)GlcNAc(b1-3)Gal(b1-4)GlcNAc(b1-6)]Man(a1-6)[GlcNAc(b1-3)Gal(b1-4)GlcNAc(b1-3)Gal(b1-4)GlcNAc(b1-3)Gal(b1-4)GlcNAc(b1-3)Gal(b1-4)GlcNAc(b1-2)Man(a1-3)]Man(b1-4)GlcNAc(b1-4)[Fuc(a1-6)]GlcNAc
Outline: as §1

[16] = target: GlcNAc(b1-3)Gal(b1-4)GlcNAc(b1-3)Gal(b1-4)GlcNAc(b1-3)GalNAc
Outline: as §1

[17] = target: GlcNAc(b1-3)Gal(b1-4)GlcNAc(b1-3)GalNAc
Outline: as §1

[18] = target: GlcNAc(b1-3)Gal(b1-4)GlcNAc(b1-3)[GlcNAc(b1-3)Gal(b1-4)GlcNAc(b1-3)]GalNAc
Outline: as §1

[19] = target: GlcNAc(b1-3)Gal(b1-4)GlcNAc(b1-6)[Gal(b1-3)]GalNAc
Outline: as §1

[20] = target: GlcNAc(b1-3)Gal(b1-4)GlcNAc(b1-6)[GlcNAc(b1-3)Gal(b1-3)]GalNAc
Outline: as §1

[21] = target: GlcNAc(b1-3)Gal(b1-4)GlcNAc(b1-6)[GlcNAc(b1-3)]Gal(b1-4)GlcNAc
Outline: as §1

[22] = target: GlcNAc(b1-3)GalNAc
Outline: as §1

[23] = target: GlcNAc(b1-3)Man
Outline: as §1

[24] = target: GlcNAc(b1-3)[GlcNAc(b1-4)][GlcNAc(b1-6)]GlcNAc
Outline: as §1

[25] = target: GlcNAc(b1-3)[GlcNAc(b1-6)]Gal(b1-4)GlcNAc
Outline: as §1

[26] = target: GlcNAc(b1-3)[GlcNAc(b1-6)]GalNAc
Outline: as §1

[27] = target: GlcNAc(b1-4)Gal(b1-4)GlcNAc
Outline: as §1

[28] = target: GlcNAc(b1-4)GlcNAc
Outline: as §1

[29] = target: GlcNAc(b1-4)GlcNAc(b1-4)GlcNAc
Outline: as §1

[30] = target: GlcNAc(b1-4)GlcNAc(b1-4)GlcNAc(b1-4)GlcNAc(b1-4)GlcNAc
Outline: as §1

[31] = target: GlcNAc(b1-4)GlcNAc(b1-4)GlcNAc(b1-4)GlcNAc(b1-4)GlcNAc(b1-4)GlcNAc
Outline: as §1

[32] = target: GlcNAc(b1-4)[GlcNAc(b1-6)]GalNAc
Outline: as §1

[33] = target: GlcNAc(b1-6)Gal(b1-4)GlcNAc
Outline: as §1

[34] = target: GlcNAc(b1-6)GalNAc
Outline: as §1

[35] = target: GlcNAc6S(b1-3)Gal(b1-4)GlcNAc
Outline: as §1

[36] = target: Kdn(a2-3)Gal(b1-3)GalNAc
Outline: as §1

[37] = target: Kdn(a2-3)Gal(b1-3)GlcNAc
Outline: as §1

[38] = target: Kdn(a2-3)Gal(b1-4)Glc
Outline: as §1

[39] = target: Kdn(a2-3)Gal(b1-4)GlcNAc
Outline: as §1

[40] = target: Kdn(a2-3)Gal(b1-4)[Fuc(a1-3)]GlcNAc
Outline: as §1

[41] = target: Kdn(a2-6)Gal(b1-4)GlcNAc
Outline: as §1

[42] = target: Man(a1-2)Man(a1-2)Man(a1-3)Man
Outline: as §1

[43] = target: Man(a1-2)Man(a1-2)Man(a1-6)[Man(a1-3)]Man
Outline: as §1

[44] = target: Man(a1-2)Man(a1-3)Man
Outline: as §1

[45] = target: Man(a1-2)Man(a1-3)[Man(a1-2)Man(a1-6)]Man
Outline: as §1

B1: LngA (Escherichia coli) (protein)
chain: MLSVYNRTQKFKAEARKKIAKYHELRKQRGMSLLEVIIVLGIIGTIAAGVVILAQRAFDSRAVTDLVTNTNTVRVRMKDAYQRDGKYPDFVDPLSLTANTIKTDTSGIPAAQLVQLGKITPDEVRNNISGDFIAIGGALTSNGAQVKKGFAIELNGLSQEQCRSILGQVGNNWEYVAIGTSASGSYAMTATGVDMSVAASTTVLRSLGNNGQTTLTADKILSTCTAQVNSITLGSR
Q: B1 was tested. Which “glycan array binding signal (z-score)” value [1] did it give?
A: -0.256

Q: What about the “glycan array binding signal (z-score)” value [2] of the same binder?
A: -0.529

Q: What about the “glycan array binding signal (z-score)” value [3] of the same binder?
A: 0.933

Q: And the “glycan array binding signal (z-score)” value [4]?
A: -0.313

Q: What about the “glycan array binding signal (z-score)” value [5] of the same binder?
A: 0.443

Q: What about the “glycan array binding signal (z-score)” value [6] of the same binder?
A: -0.517

Q: And the “glycan array binding signal (z-score)” value [7]?
A: 0.704

Q: What about the “glycan array binding signal (z-score)” value [8] of the same binder?
A: -0.164

Q: What about the “glycan array binding signal (z-score)” value [9] of the same binder?
A: -0.371

Q: What about the “glycan array binding signal (z-score)” value [10] of the same binder?
A: -0.297

Q: And the “glycan array binding signal (z-score)” value [11]?
A: 0.452

Q: What about the “glycan array binding signal (z-score)” value [12] of the same binder?
A: -0.29

Q: What about the “glycan array binding signal (z-score)” value [13] of the same binder?
A: 1.02

Q: What about the “glycan array binding signal (z-score)” value [14] of the same binder?
A: -0.422

Q: What about the “glycan array binding signal (z-score)” value [15] of the same binder?
A: -0.386

Q: And the “glycan array binding signal (z-score)” value [16]?
A: -0.215

Q: What about the “glycan array binding signal (z-score)” value [17] of the same binder?
A: -0.422

Q: And the “glycan array binding signal (z-score)” value [18]?
A: -0.298

Q: And the “glycan array binding signal (z-score)” value [19]?
A: -0.006

Q: And the “glycan array binding signal (z-score)” value [20]?
A: -0.435

Q: What about the “glycan array binding signal (z-score)” value [21] of the same binder?
A: -0.495

Q: What about the “glycan array binding signal (z-score)” value [22] of the same binder?
A: -0.269

Q: What about the “glycan array binding signal (z-score)” value [23] of the same binder?
A: -0.148

Q: What about the “glycan array binding signal (z-score)” value [24] of the same binder?
A: -0.366

Q: And the “glycan array binding signal (z-score)” value [25]?
A: -0.527

Q: And the “glycan array binding signal (z-score)” value [26]?
A: -0.436

Q: What about the “glycan array binding signal (z-score)” value [27] of the same binder?
A: -0.526

Q: And the “glycan array binding signal (z-score)” value [28]?
A: -0.47

Q: And the “glycan array binding signal (z-score)” value [29]?
A: -0.387

Q: What about the “glycan array binding signal (z-score)” value [30] of the same binder?
A: -0.257

Q: What about the “glycan array binding signal (z-score)” value [31] of the same binder?
A: 0.247

Q: And the “glycan array binding signal (z-score)” value [32]?
A: -0.365

Q: What about the “glycan array binding signal (z-score)” value [33] of the same binder?
A: -0.431

Q: What about the “glycan array binding signal (z-score)” value [34] of the same binder?
A: -0.392

Q: What about the “glycan array binding signal (z-score)” value [35] of the same binder?
A: -0.464

Q: What about the “glycan array binding signal (z-score)” value [36] of the same binder?
A: -0.202

Q: What about the “glycan array binding signal (z-score)” value [37] of the same binder?
A: -0.498

Q: And the “glycan array binding signal (z-score)” value [38]?
A: -0.315

Q: What about the “glycan array binding signal (z-score)” value [39] of the same binder?
A: -0.197

Q: And the “glycan array binding signal (z-score)” value [40]?
A: -0.229

Q: What about the “glycan array binding signal (z-score)” value [41] of the same binder?
A: -0.452

Q: What about the “glycan array binding signal (z-score)” value [42] of the same binder?
A: -0.556

Q: What about the “glycan array binding signal (z-score)” value [43] of the same binder?
A: -0.413

Q: And the “glycan array binding signal (z-score)” value [44]?
A: -0.362

Q: And the “glycan array binding signal (z-score)” value [45]?
A: -0.54
